Measurements reported in PubChem BioAssay AID686978 (National Center for Advancing Translational Sciences (NCATS), 2013).
Among all 420,000 compounds or so, about 64,000 (15%) were called active. The shares of active, inactive and inconclusive entries below differ from those in the screen. The call rests on the fitted dose curve; in most records, active means well fitted inhibition curve with a large enough effect; inconclusive means small, poorly fitted or top-dose-only effect; inactive means flat fitted curve, though single readings scatter. No potency is given beside an inconclusive call; the fits are too rough.

experiment: qHTS for Inhibitors of human tyrosyl-DNA phosphodiesterase 1 (TDP1): qHTS in cells in absence of CPT; conditions: DT40 Tdp1-/- hTDP1 cells, no CPT, ATP luminescence, 48 h; activity change, negative = growth inhibition: at 46.2 µM (top of the series); further: nearly all actives have a fitted effect of over 55% in size
Outline: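 Growth kinetics read by CellTiter-Glo luminescence after ≥48 hr at 37 °C. Cells: DT40 Tdp1-/- stably carrying human TDP1, 400 per well, compound exposure in the absence of CPT (DMSO vehicle).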
On the % scale 0 is the no-effect control and ±100 the full control effect; potency means the concentration at half of the fitted maximal effect; tags describe the fitted curve by direction and shape.

Q: For `COc1ccc(S(=O)(=O)N2CCc3ccccc32)cc1C(=O)NCC(c1ccco1)N1CCCC1` (centres undefined), which Potency is on record?
A: The Potency was inconclusive [inhibitor, single point].

Q: For `Cc1cc(C)c(C)c(S(=O)(=O)N2CCC(C(=O)NC3=NCCS3)CC2)c1C`, which Potency is on record?
A: The Potency was “inactive”.

Q: Which Potency does the source give for `NC(=S)N/N=C/c1ccc(-c2cc(Cl)cc(Cl)c2)o1` here?
A: The Potency was active: 2.06 µM.

Q: For `CC(=O)N1N=C(c2cccc(NS(C)(=O)=O)c2)CC1c1cccs1` (centres undefined), which Potency is on record?
A: Its Potency is “inactive”.

Q: With `CSc1ccc(S(=O)(=O)N2CCC(C(=O)NCCc3ccccc3)CC2)cc1` as the compound, how does the Potency read?
A: Its Potency is “inactive”.

Q: With `CCN1CCN(Cc2ccc(OC)c(OCc3ccccc3)c2)CC1` as the compound, how does the Potency read?
A: Its Potency is inconclusive [inhibitor, partial curve, poor fit].

Q: With `COc1cc(NC(=O)/C=C/c2ccccc2)c(C(=O)O)cc1OC` as the compound, how does the Potency read?
A: Its Potency is inconclusive [inhibitor, single point].

Q: Which Potency does the source give for `CCc1ccc2[nH]c(=O)c(CN(Cc3ccccc3)Cc3nnnn3Cc3ccccc3)cc2c1` here?
A: The Potency was inconclusive [inhibitor, single point].

Q: With `COc1cc(OC)nc(S(C)(=O)=O)n1` as the compound, how does the Potency read?
A: The Potency was inconclusive [inhibitor, single point].

Q: Which Potency does the source give for `Cc1cc2nnc(SCC(=O)N3CCN(c4ccccc4)CC3)n2c(N)n1` here?
A: Its Potency is “inactive”.

Q: Which Potency does the source give for `Cc1cc2ncn(S(=O)(=O)c3ccc(S(=O)(=O)N4CCOCC4)cc3)c2cc1C` here?
A: The Potency was “inactive”.

Q: Which Potency does the source give for `Cc1onc(-c2ccccc2)c1-c1nnc(CN2CCN(S(=O)(=O)c3ccccc3)CC2)o1` here?
A: Its Potency is active: 16.4 µM.

Q: Which Potency does the source give for `Cc1cc2ccccc2nc1-c1ccccc1F` here?
A: Its Potency is inconclusive [inhibitor, single point].

Q: Which Potency does the source give for `O=C(NCCCCO)c1c(-c2ccccc2)oc2c1C(OCCCCCO)CCC2` (centres undefined) here?
A: Its Potency is inconclusive [inhibitor, single point].

Q: For `CCOC(=O)c1[nH]c2ccccc2c1NC(=S)Nc1cccc(C)c1C`, which Potency is on record?
A: Its Potency is inconclusive [inhibitor, single point].

Q: Which Potency does the source give for `O=C(NC(=S)Nc1ccc(O)cc1)C1CCCC1` here?
A: Its Potency is inconclusive [inhibitor, single point].

Q: With `Cc1ccc(C)c(Cn2c(C(C)NC(=O)c3ccccc3)nc3ccccc32)c1` (centres undefined) as the compound, how does the Potency read?
A: The Potency was active: 20.6 µM.

Q: For `Cc1nc2ccc(S(=O)(=O)N(CC(=O)Nc3cccc(C)c3C)Cc3ccccc3)cc2s1`, which Potency is on record?
A: The Potency was inconclusive [inhibitor, single point].

Q: For `COc1ccc(NC(=O)CCSc2nc(C)cs2)cc1`, which Potency is on record?
A: Its Potency is inconclusive [inhibitor, single point].

Q: With `O=C(CC1CC2CCC1C2)N1CCN(S(=O)(=O)c2ccccc2C(F)(F)F)CC1` (centres undefined) as the compound, how does the activity change, negative = growth inhibition read?
A: Its activity change, negative = growth inhibition is inconclusive: -34.7% [inhibitor].

Q: With `Cc1ccc(NC(=O)C2CCC(CNS(=O)(=O)c3cccc4nsnc34)CC2)c(C)c1` (centres undefined) as the compound, how does the Potency read?
A: The Potency was inconclusive [inhibitor, single point].

Q: For `COc1ccc(NC(=O)C(CC(=O)O)C(C)c2ccccc2)cc1` (centres undefined), which Potency is on record?
A: Its Potency is inconclusive [inhibitor, single point].

Q: For `O=C(COC(=O)C1CCN(c2ccc(C(F)(F)F)cn2)CC1)NCc1ccc(F)cc1`, which Potency is on record?
A: Its Potency is “inactive”.

Q: Which Potency does the source give for `O=C(c1cccc(F)c1)N1CCCN(C(=O)c2cccc(F)c2)CC1` here?
A: The Potency was “inactive”.

Q: Which Potency does the source give for `COc1ccc(NS(=O)(=O)c2ccc3c(c2)N(C(C)=O)CCS3)cc1` here?
A: Its Potency is inconclusive [inhibitor, single point].

Q: Which Potency does the source give for `O=C(CSC1=Nc2ccccc2C2=NC(Cc3ccccc3)C(=O)N12)Nc1ccccc1` (centres undefined) here?
A: The Potency was inconclusive [inhibitor, single point].

Q: For `COc1ccc(CCNC(=O)c2cc(-c3ccco3)nc3ccccc23)cc1`, which Potency is on record?
A: The Potency was inconclusive [inhibitor, single point].

Q: For `C[C@]12c3[nH]c4ccccc4c3CCN1C(=O)C(CC(=O)NCCc1ccccn1)C[C@@H]2C(=O)N1CCCCC1` (some centres undefined), which Potency is on record?
A: Its Potency is inconclusive [inhibitor, single point].

Q: With `COc1cccc(OCc2nc3ccccc3n2C)c1` as the compound, how does the Potency read?
A: Its Potency is inconclusive [inhibitor, partial curve].

Q: For `COC(=O)c1cc(C(=O)Nc2ccc(C)cn2)cc([N+](=O)[O-])c1`, which Potency is on record?
A: The Potency was inconclusive [inhibitor, single point].

Q: For `O=C(O)/C=C\C(=O)Nc1ccc(Oc2ccccc2)cc1`, which Potency is on record?
A: Its Potency is “inactive”.

Q: For `O=C(NC1CCCC1)C(c1cccnc1)N(C(=O)c1ccco1)c1ccc(F)cc1` (centres undefined), which Potency is on record?
A: The Potency was inconclusive [inhibitor, full curve, poor fit].

Q: With `CCc1cccc(CC)c1NC(=O)C1CN(S(=O)(=O)c2ccccc2)CCN1S(=O)(=O)c1ccccc1` (centres undefined) as the compound, how does the Potency read?
A: Its Potency is inconclusive [inhibitor, single point].

Q: For `CCCNC(=O)OCc1cccnc1Sc1ccc(C)cc1`, which Potency is on record?
A: The Potency was active: 14.6 µM.

Q: With `O=C(COc1ccccc1)NCC(=O)NC1=NCCS1` as the compound, how does the Potency read?
A: The Potency was “inactive”.

Q: Which Potency does the source give for `O=C(COc1ncnc2c1cnn2-c1ccccc1)Nc1ccc(S(=O)(=O)N2CCCCC2)cc1` here?
A: Its Potency is inconclusive [inhibitor, single point].

Q: Which Potency does the source give for `O=C(NNc1cc(N2CCOCC2)nc(N2CCOCC2)n1)c1ccc(Cl)c(Cl)c1` here?
A: The Potency was inconclusive [inhibitor, single point].

Q: Which Potency does the source give for `C=CC[C@H]1CC(C)=C[C@H](CC=C)N1` here?
A: Its Potency is “inactive”.

Q: For `O=C(Nc1cccc2c1CCCC2)C1CCN(C(=O)NC2CCCCC2)CC1`, which Potency is on record?
A: The Potency was inconclusive [inhibitor, single point].

Q: Which Potency does the source give for `CN(C)C(=O)c1ccccc1Sc1ccc(Cl)cc1Cl` here?
A: Its Potency is inconclusive [inhibitor, partial curve].

Q: With `O=C(Cc1cccc(NC(=O)C2CCN(C(=O)C3CCCC3)CC2)c1)Nc1cccc(C(=O)N2CCOCC2)c1` as the compound, how does the Potency read?
A: Its Potency is “inactive”.

Q: For `O=C(Nc1ccccc1)Nc1nnc(CSCc2ccccc2Cl)s1`, which Potency is on record?
A: The Potency was inconclusive [inhibitor, single point].

Q: Which Potency does the source give for `Cc1ccc(NS(=O)(=O)c2ccc(C(=O)NCC3CCCO3)cc2)cc1` (centres undefined) here?
A: The Potency was inconclusive [inhibitor, partial curve, poor fit].

Q: With `COC(=O)c1ccc(NC(=O)c2ccco2)cc1` as the compound, how does the activity change, negative = growth inhibition read?
A: Its activity change, negative = growth inhibition is inconclusive: -30.3% [inhibitor].
